# Laboratory results: a collection of fitness landscapes (doi:10.1016/j.celrep.2020.107928)
# The full ranking holds about 81,000 sequences; the median of “one-hybrid fitness for binding parS DNA” is about -0.17, and the highest 2% start at about 0.51. This is one part of the list.
# B1: Caulobacter ParB omega fusion; a variant is named by its letters at X, in order, B8GW30 (parent)
# chain: MESVVVGEPGMSEGRRGLGRGLSALLGEVDAAPAQAPGEQLGGSREAPIEILQRNPDQPRRTFREEDLEDLSNSIREKGVLQPILVRPSPDTAGEYQIVAGERAWRAAQRAGLKTVPIMVRELDDLAVLEIGIIENVQRADLNVLEEALSYKVLMEKFERTQENIAQTIGKSXSHVANXMRLLXLPDEVQSYLVSGELTAXHARAIAAAADPVALAKQIIEGGLSVRETEALARKAPNLSAGKSKGGRPPRVKDTDTQALESDLSSVLGLDVSIDHRGSTGTLTITYATLEQLDDLCNRLTRGI
# Variants of: B1
# Test: one-hybrid fitness for binding parS DNA (scaled: cognate 1, non-cognate 0); higher = stronger binding
# Conditions: with parS DNA site
# Procedure, shortened: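 Caulobacter ParB libraries with four specificity codons randomised were screened by bacterial one-hybrid selection in the E. coli USO strain, using a HIS3 reporter whose site lies 19 bp from the promoter. Selection ran for 48 hours at 37°C on M9 lacking histidine, with 0.1 mM IPTG and 5 mM 3-AT. Plasmids were Illumina-sequenced before and after selection, three replicate libraries were pooled, and variants with under 10 reads were dropped. Fitness is the log change in each variant's read ratio to wild type, rescaled against the cognate and non-cognate sites.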
row,Variant,one-hybrid fitness for binding parS DNA
1,KFQG,≤ 0.2
2,ISTM,≤ 0.2
3,NMTH,≤ 0.2
4,DDTS,≤ 0.2
5,TYDV,≤ 0.2
6,VPHL,≤ 0.2
7,WRQT,≤ 0.2
8,DNEL,≤ 0.2
9,RPEM,≤ 0.2
10,CGIG,≤ 0.2
11,TGDT,≤ 0.2
12,TQTD,≤ 0.2
13,CLQT,≤ 0.2
14,AYKV,≤ 0.2
15,AYSE,≤ 0.2
16,SWKV,≤ 0.2
17,SKYC,≤ 0.2
18,ARCR,≤ 0.2
19,RKWV,≤ 0.2
20,SHYR,≤ 0.2
21,KQID,≤ 0.2
22,WLRS,≤ 0.2
23,PEFC,≤ 0.2
24,PNKV,≤ 0.2

row,Variant,one-hybrid fitness for binding parS DNA
1,RRYP,≤ 0.2
2,PSVH,≤ 0.2
3,CFRE,≤ 0.2
4,WALV,≤ 0.2
5,PLGD,≤ 0.2
6,MPKW,≤ 0.2
7,RTHM,0.317
8,EVCT,≤ 0.2
9,GTNG,≤ 0.2
10,YMKS,≤ 0.2
11,DRRV,≤ 0.2
12,ATYT,≤ 0.2
13,VRAY,≤ 0.2
14,RNDK,≤ 0.2
15,LRKW,≤ 0.2
16,QRGE,≤ 0.2
17,CPRA,≤ 0.2
18,SQSA,≤ 0.2
19,MMHC,≤ 0.2
20,RYQW,0.202
21,PGIT,≤ 0.2
22,MSIR,≤ 0.2
23,QSSF,≤ 0.2
24,RVAT,0.916

row,Variant,one-hybrid fitness for binding parS DNA
1,DIQR,≤ 0.2
2,IKWR,≤ 0.2
3,IVYR,≤ 0.2
4,RWTD,≤ 0.2
5,PCVR,≤ 0.2
6,TPAI,≤ 0.2
7,PAQT,≤ 0.2
8,DNYR,≤ 0.2
9,SIVL,≤ 0.2
10,QKHY,≤ 0.2
11,FSVD,≤ 0.2
12,EPRK,≤ 0.2
13,MTMI,≤ 0.2
14,SRVH,≤ 0.2
15,QSDQ,≤ 0.2
16,LMYN,≤ 0.2
17,AGHI,≤ 0.2
18,ATGD,≤ 0.2
19,LPMN,≤ 0.2
20,ASHI,≤ 0.2
21,RKGL,≤ 0.2
22,LMHR,≤ 0.2
23,QPMC,≤ 0.2
24,KTGR,≤ 0.2

row,Variant,one-hybrid fitness for binding parS DNA
1,DHQC,≤ 0.2
2,HPWR,≤ 0.2
3,RLDY,0.451
4,VHDS,≤ 0.2
5,ADWV,≤ 0.2
6,KHRV,≤ 0.2
7,QVEN,0.289
8,GIRR,≤ 0.2
9,QHGV,≤ 0.2
10,CRAR,≤ 0.2
11,VNMD,≤ 0.2
12,PKPT,≤ 0.2
13,WPNA,≤ 0.2
14,PRFT,≤ 0.2
15,PPTH,≤ 0.2
16,ACPQ,≤ 0.2
17,RVRK,≤ 0.2
18,PHNV,≤ 0.2
19,AWKC,≤ 0.2
20,VTNN,≤ 0.2
21,YGQC,≤ 0.2
22,WQQG,≤ 0.2
23,RWGK,≤ 0.2
24,STMS,≤ 0.2

row,Variant,one-hybrid fitness for binding parS DNA
1,AIVA,≤ 0.2
2,KHFG,≤ 0.2
3,TNLL,≤ 0.2
4,KCRI,≤ 0.2
5,QPRV,≤ 0.2
6,CSST,≤ 0.2
7,NCIT,≤ 0.2
8,PSAL,≤ 0.2
9,GFAS,≤ 0.2
10,PFWL,≤ 0.2
11,PRAD,≤ 0.2
12,YAVM,≤ 0.2
13,IARM,≤ 0.2
14,RRCV,≤ 0.2
15,LYRR,≤ 0.2
16,HKES,≤ 0.2
17,CRCE,≤ 0.2
18,QCAW,≤ 0.2
19,YTRM,≤ 0.2
20,IVSV,≤ 0.2
21,HELC,≤ 0.2
22,GQII,≤ 0.2
23,FVTE,≤ 0.2
24,LQMW,≤ 0.2

row,Variant,one-hybrid fitness for binding parS DNA
1,VKHL,≤ 0.2
2,PVYR,≤ 0.2
3,VLCL,≤ 0.2
4,GMST,≤ 0.2
5,FGAV,≤ 0.2
6,ANLV,≤ 0.2
7,PVRC,≤ 0.2
8,TWVY,≤ 0.2
9,HVVR,≤ 0.2
10,AAYW,≤ 0.2
11,YTSK,≤ 0.2
12,THKS,≤ 0.2
13,RFWW,≤ 0.2
14,RKRM,0.281
15,TPWS,≤ 0.2
16,FDYL,≤ 0.2
17,ERIL,≤ 0.2
18,IALL,≤ 0.2
19,SIKC,≤ 0.2
20,DTLW,≤ 0.2
21,GQTG,≤ 0.2
22,MCLK,0.238
23,VVHY,≤ 0.2
24,AGKL,≤ 0.2

row,Variant,one-hybrid fitness for binding parS DNA
1,ENTS,≤ 0.2
2,FDMR,≤ 0.2
3,PYWD,≤ 0.2
4,ATAE,≤ 0.2
5,VQHT,≤ 0.2
6,RFSQ,≤ 0.2
7,TYFG,≤ 0.2
8,PVWC,≤ 0.2
9,YHPW,≤ 0.2
10,GSHV,≤ 0.2
11,CDLV,≤ 0.2
12,CRPC,≤ 0.2
13,IFTI,≤ 0.2
14,SFDR,≤ 0.2
15,MQDV,≤ 0.2
16,KHIR,≤ 0.2
17,KEAT,≤ 0.2
18,GSEF,≤ 0.2
19,SPRR,≤ 0.2
20,MWGP,≤ 0.2
21,LACW,≤ 0.2
22,RKPT,0.412
23,RHLQ,≤ 0.2
24,MPWS,≤ 0.2

row,Variant,one-hybrid fitness for binding parS DNA
1,CPGE,≤ 0.2
2,ATTA,≤ 0.2
3,SAMW,≤ 0.2
4,HMDR,≤ 0.2
5,HHPG,≤ 0.2
6,PQLV,≤ 0.2
7,IAWR,≤ 0.2
8,DAYL,≤ 0.2
9,DAPR,≤ 0.2
10,RCER,≤ 0.2
11,GKTL,≤ 0.2
12,GGIR,≤ 0.2
13,ASQA,≤ 0.2
14,SPLT,≤ 0.2
15,EIEG,≤ 0.2
16,TSSG,≤ 0.2
17,PSMK,≤ 0.2
18,PDPI,≤ 0.2
19,VRRA,≤ 0.2
20,RCDK,≤ 0.2
21,LADL,≤ 0.2
22,EVQA,≤ 0.2
23,PCCT,≤ 0.2
24,RGSF,≤ 0.2

row,Variant,one-hybrid fitness for binding parS DNA
1,TIGL,≤ 0.2
2,DPTL,≤ 0.2
3,ARFV,≤ 0.2
4,GVAG,≤ 0.2
5,KHHW,≤ 0.2
6,GWLC,≤ 0.2
7,GCDA,≤ 0.2
8,SELG,≤ 0.2
9,CNLL,≤ 0.2
10,YGYR,≤ 0.2
11,PTDL,≤ 0.2
12,LCAS,≤ 0.2
13,SQGI,≤ 0.2
14,WHPR,≤ 0.2
15,SDSR,≤ 0.2
16,LSVR,≤ 0.2
17,DYRT,≤ 0.2
18,KRDI,≤ 0.2
19,VVNT,≤ 0.2
20,NMYK,≤ 0.2
21,THYM,≤ 0.2
22,AHME,≤ 0.2
23,PKCS,≤ 0.2
24,DPPK,≤ 0.2

row,Variant,one-hybrid fitness for binding parS DNA
1,RQWT,0.702
2,KLQI,≤ 0.2
3,ALNR,≤ 0.2
4,GAFF,≤ 0.2
5,TETE,≤ 0.2
6,TSSQ,≤ 0.2
7,CFAS,≤ 0.2
8,NYWG,≤ 0.2
9,RTDA,0.554
10,SKAY,≤ 0.2
11,SLHA,≤ 0.2
12,VHHD,≤ 0.2
13,RKHT,0.756
14,ACRS,≤ 0.2
15,KTWP,≤ 0.2
16,RLMP,0.229
17,TMLV,≤ 0.2
18,DINP,≤ 0.2
19,LCQG,≤ 0.2
20,AEPM,≤ 0.2
21,LGRS,≤ 0.2
22,SQVK,≤ 0.2
23,HHQA,≤ 0.2
24,IMLV,≤ 0.2

row,Variant,one-hybrid fitness for binding parS DNA
1,DVVY,≤ 0.2
2,GHVC,≤ 0.2
3,QASE,≤ 0.2
4,IRTH,≤ 0.2
5,VACR,≤ 0.2
6,KGAR,≤ 0.2
7,HAVR,≤ 0.2
8,WGFR,≤ 0.2
9,DVKF,≤ 0.2
10,VNHV,≤ 0.2
11,LTAE,≤ 0.2
12,GILT,≤ 0.2
13,NHAT,≤ 0.2
14,HIAC,≤ 0.2
15,RQVQ,≤ 0.2
16,SWSP,≤ 0.2
17,PGFL,≤ 0.2
18,RVLM,0.309
19,CESR,≤ 0.2
20,APSC,≤ 0.2
21,AHHD,≤ 0.2
22,TGFG,≤ 0.2
23,IRYQ,≤ 0.2
24,QTSD,≤ 0.2

row,Variant,one-hybrid fitness for binding parS DNA
1,GTAG,≤ 0.2
2,LRMN,≤ 0.2
3,PFGP,≤ 0.2
4,QSSL,≤ 0.2
5,AKKS,≤ 0.2
6,NSLP,≤ 0.2
7,RQMC,0.945
8,WRIR,≤ 0.2
9,NVSS,≤ 0.2
10,MHMR,≤ 0.2
11,PIFT,≤ 0.2
12,GEYS,≤ 0.2
13,QVLY,≤ 0.2
14,AANL,≤ 0.2
15,WTEY,≤ 0.2
16,NRHR,≤ 0.2
17,GHTG,≤ 0.2
18,QWRL,≤ 0.2
19,FVLS,≤ 0.2
20,NLGA,≤ 0.2
21,QKDL,≤ 0.2
22,HFQC,≤ 0.2
23,MAPA,≤ 0.2
24,YSSF,≤ 0.2

row,Variant,one-hybrid fitness for binding parS DNA
1,GPDR,≤ 0.2
2,NLEN,≤ 0.2
3,AFWS,≤ 0.2
4,PVFS,≤ 0.2
5,SCQW,≤ 0.2
6,IMKG,≤ 0.2
7,KSIE,≤ 0.2
8,RHFV,≤ 0.2
9,FNLG,≤ 0.2
10,TMKH,≤ 0.2
11,KDID,≤ 0.2
12,KVEV,≤ 0.2
13,DTRN,≤ 0.2
14,LYKF,≤ 0.2
15,HACC,≤ 0.2
16,GSVW,≤ 0.2
17,SSKL,≤ 0.2
18,MLVT,≤ 0.2
